Measurements published in PubChem BioAssay AID1508642 (National Center for Advancing Translational Sciences (NCATS), 2021).
The whole screen tested about 43,000 compounds, of which about 200 (0.47%) were called active. Inconclusive results (about 12%) are left out. The call rests on the fitted dose curve; in most records, active means well fitted cell-killing curve with a large enough effect; inconclusive means small, poorly fitted or top-dose-only effect, or effect the other way; inactive means flat fitted curve, though single readings scatter. The list shows a part of the results.

Test: Cell viability qHTS assay in S16 Pmp22-F2sN cells; further: nearly all actives have a fitted effect of over 65% in size
Conditions: S16 Pmp22-F2sN Schwann cells (luciferase reporters placed in the Pmp22 gene) viability, CellTiter-Glo, 24 h; series mostly up to 57.5 µM; activity change, negative = cytotoxicity: at the top concentration
Outline: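 Rat S16 Schwann reporter line, 24 h treatment with library compounds delivered at 23 nL per well. Cell viability by CellTiter-Glo luminescence.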
On the % scale 0 is the no-effect control and ±100 the full control effect.

Structure (SMILES)	activity change, negative = cytotoxicity
O=C(Nc1ccc(F)cc1F)c1ccc(-n2cnc3cccnc32)cc1	inactive: -8.59%
CC(=O)c1ccc(NC(=O)CSc2nnc3c(n2)[nH]c2ccccc23)cc1	inactive: -29.2%
CC(=O)c1ccc(NC(=O)CSc2nccn2C2CCCC2)cc1	inactive: -8.44%
Cc1cccc(N2CCN(c3ccc4cc(S(=O)(=O)N5CCC(C)CC5)ccc4n3)CC2C)c1 (stereo not drawn)	inactive: -0.808%
Cc1nn(-c2cccc(Cl)c2)c2nc(-c3cccnc3)cc(C(F)(F)F)c12	inactive: 5.58%
CCOc1ccc(NC(=O)CSc2nc3ccccc3nc2N2CCOCC2)cc1	inactive: -0.624%
COc1ccc(CNC(=O)c2cc3cccc4c3n2CC(C)S4)cc1 (stereo not drawn)	inactive: -4%
O=c1c(N2CCN(c3ccc(F)cc3)CC2)csc2ccc(F)cc12	inactive: -5.03%
COc1ccc(S(=O)(=O)NC(C)(C)CO)cc1-c1nnc2c3ccccc3c(C)nn12	inactive: -0.956%
CC(C)CC(=O)Nc1cccc(-c2cn3cccnc3n2)c1	inactive: -3.81%
CCCn1c(=O)c2sccc2n2c(CCCC(=O)N3CCN(c4ccc(OC)cc4)CC3)nnc12	inactive: -27.9%
CN(C)c1ccc(NC(=O)CC(NCc2cccnc2)C(=O)O)cc1 (stereo not drawn)	inactive: 11.3%
Cc1ccccc1NC(=O)c1sc2nc3n(c(=O)c2c1C)N=C(c1ccccc1)CS3	inactive: 10.7%
COc1ccc(C)cc1NC1(c2ccccc2)C(=O)c2ccccc2C1=O	inactive: 2.96%
COc1ccc(OC)c(N(C)S(=O)(=O)c2ccc3c(c2)NC(=O)CC(=O)N3)c1	inactive: -11.4%
Cc1ccc(NC(=O)CCCn2c(=O)c3cccn3c3cccnc32)c(C)c1	inactive: 5.55%
COc1cccc(CNc2sc3c(c2C(=O)Nc2ccc(OC)cc2OC)CCC3)c1	inactive: -7.87%
CCC(Sc1nc2nccnc2c(=O)n1Cc1ccc(Cl)cc1)C(=O)NC1CCCCC1 (stereo not drawn)	inactive: -11.2%
O=c1c(-c2cc(-c3ccccc3)nc3c2COc2ccc(Cl)cc2-3)coc2ccccc12	inactive: 23.4%
Cc1ccc(-n2ccn(CC(=O)c3ccc(F)cc3)c(=O)c2=O)cc1C	inactive: 3.35%
CC(=O)N1CCCc2cc(S(=O)(=O)Nc3ccc(OC(F)(F)F)cc3)ccc21	inactive: -1.14%
Cc1cccc(C)c1NC(=O)c1cc(S(=O)(=O)N2CCCc3ccccc32)ccc1F	inactive: -20.6%
COc1cccc(C(=O)NCCc2sc(-c3cccc(C)c3)nc2C)c1	inactive: 1.16%
Cc1ccc2c(CC(=O)Nc3c(C(=O)c4ccc(F)cc4)oc4ccccc34)coc2c1C	inactive: 7.47%

Structure (SMILES)	activity change, negative = cytotoxicity
CC(C)c1ccc(NC(=O)C(Cc2ccccc2)n2cccc2)cc1 (stereo not drawn)	inactive: -17%
Cc1ccc(C)c(S(=O)(=O)c2cn(Cc3ccccc3)c3cc(N4CCCC4)c(F)cc3c2=O)c1	inactive: 8.72%
CCOc1ccc(NC(=O)Cn2c(=O)n(CC(=O)NCCc3ccccc3)c(=O)c3sccc32)cc1	inactive: -6.98%
COc1ccc2c(CNCCc3ccco3)c(C(=O)O)n(Cc3ccc(F)cc3)c2c1	inactive: 1.55%
CC(=O)Nc1nonc1-c1nnc(SCC(=O)Nc2c(C)cccc2C)n1-c1ccccc1	inactive: 0.199%
CCn1cc(C(=O)NCc2ccc(Cl)cc2)c(=O)c2cc(S(=O)(=O)N3CCc4ccccc4C3)ccc21	inactive: 0.691%
COc1cccc(NC(=O)c2oc3ccccc3c2NC(=O)c2ccc(OC(C)C)cc2)c1	inactive: -13.8%
COCC(C)NS(=O)(=O)c1ccc(N2CCCCS2(=O)=O)cc1 (stereo not drawn)	inactive: -1.22%
COc1cc(Cl)c(C)cc1NC(=O)CCn1cnc2onc(-c3ccc(F)cc3)c2c1=O	inactive: -10.5%
CCOC(=O)c1ccc(NC(=O)c2sc3nc4n(c(=O)c3c2C)CCC4)cc1	inactive: -4.17%
CCN1C(C(=O)c2ccccc2)=C(NC(=O)c2ccc(Cl)cc2)c2ccccc2S1(=O)=O	inactive: -18.7%
Cc1ccc(C(=O)CSc2nc(-c3ccccc3)nc3c2CCCC3)cc1C	inactive: 5.16%
CCCN(CCC)c1cc(C)nc2nc(-c3ccc(Cl)cc3)nn12	inactive: 18.9%
Cc1nc2nc(NC(=O)C(C)C)[nH]n2c(=O)c1Cc1ccccc1	inactive: 14.9%
Cc1ccc(Nc2nc(C(N)=O)c(NC(=O)c3ccccc3Br)s2)cc1	inactive: -10.5%
CC1=C(C(=O)Nc2ccc(C)cc2C)C(c2cccs2)n2nc(SCc3ccc(Cl)cc3)nc2N1 (stereo not drawn)	inactive: -0.418%
COc1ccc(-c2csc3ncnc(Nc4cccc(F)c4)c23)cc1	inactive: -20%
Cc1cc(Oc2nc3ccccn3c(=O)c2/C=C(\C#N)c2nc3ccccc3s2)ccc1Cl	inactive: 1.19%
Cc1ccc2c(c1)c1c(c(=O)n(-c3ccccc3C)c(=O)n1Cc1cccc(F)c1)n2C	inactive: 1.07%
Cc1ccc(Cl)cc1NC(=O)C(NS(=O)(=O)c1ccc2c(c1)CCC(=O)N2)c1ccccc1 (stereo not drawn)	inactive: 5.71%
Cc1ccccc1C(=O)NC(=O)Nc1ccc(-n2nc(C(F)(F)F)cc2C(F)(F)F)cc1	inactive: 1.33%
COc1cccc(CNC(=O)CCn2c(=O)c3cccn3c3cccnc32)c1	inactive: -3.51%
COc1ccc2cc(CNc3ccccc3)c(=O)n(CC(=O)Nc3ccc(C(C)=O)cc3)c2c1	inactive: -1.35%
COc1ccc(-c2cn3nc(N4CCCC(C(=O)NCCCOC(C)C)C4)sc3n2)cc1 (stereo not drawn)	inactive: -0.571%
